Measurements reported in US11299538B2, “Anti-IGF antibodies” (Boehringer Ingelheim International GmbH, priority 2008, dated 2022).

What was measured:
Mouse IGF-2 = biological target: T1, Mouse IGF-2 (Mus musculus, UniProt P09535); test: direct immunosorbent assay (ELISA) binding titration; conditions: murine IGF-2; FIG. 1E
T1 construct: insulin-like growth factor-2 (IGF-2; a 67 amino-acid polypeptide)
Procedure: (§1) Fully human IgG1 antibodies that bound with high affinity to IGF-1 are also tested for binding to human IGF-1 in direct immunosorbent assays (ELISA). Assays are performed by coating human IGF-1 (R&D Systems, No. 291-G1) to 96-well Maxisorb plates at a concentration of 0.5 μg/ml overnight at 4° C. (100 μl/well). Coating buffer alone is used as a control for unspecific binding. Wells are then washed once with washing buffer (1×TBS-T) and residual binding sites are blocked with 200 μl blocking buffer for 1 hour at room temperature on an orbital shaker followed by a further wash cycle. Serial three-fold dilutions of each test antibody in blocking buffer are prepared directly on the coated plates. Typical concentrations used are 50, 16.6, 5.6, 1.8, 0.6, 0.2, and 0.07 ng/ml. Blocking buffer alone is used as a positive control. The plates are then incubated for 2 hours at room temperature with agitation. After three wash cycles 100 μl/well of HRPO-conjugated anti-human IgG secondary reagent (Jackson ImmunoResearch Inc.) diluted in blocking buffer is added to all wells. After 2 hours incubation at room temperature with agitation the plates are washed three-times and 100 μl/well of TMB substrate solution (equal amounts of solution A and B) are pipetted into all wells. The plates are incubated for 10-20 min at RT with agitation and then the reaction is stopped by addition of 100 μl/well 1 M phosphoric acid. The absorbance is measured at a wavelength of 450 nm (reference 650 nm).
(§2) Binding of the fully human IGF-1 binding IgG1 antibodies to mouse IGF-1 (R&D Systems, No. 791-MG), rat IGF-1 (IBT, No. RU100), human IGF-2 (GroPep, No. FM001), mouse IGF-2 (R&D Systems, No. 792-MG), rat IGF-2 (IBT, No. AAU100), and human insulin (Roche) is also tested as described above for human IGF-1 (except that the concentration of human insulin used for coating is 3 μg/ml).

Rat IGF-1 = biological target: T2, Rat IGF-1 (Rattus norvegicus, UniProt P08025); test: as above; conditions: FIG. 1C
T2 construct: Insulin-like growth factor-1 (IGF-1; a 70 amino-acid polypeptide)
T2 sequence (P08025 49-118 limits assumed): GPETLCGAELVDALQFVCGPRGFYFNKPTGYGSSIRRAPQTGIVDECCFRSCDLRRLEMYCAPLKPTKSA
Procedure: as §1, §2

human insulin = biological target: T3, human insulin (Homo sapiens, UniProt P01308); test: as above; conditions: highest concentration tested, 50 ng/ml; FIG. 1G
T3 construct: purchased Roche
T3 sequence (P01308 25-54 limits assumed): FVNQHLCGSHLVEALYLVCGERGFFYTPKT
T3 sequence (P01308 90-110 limits assumed): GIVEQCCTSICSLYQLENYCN
Procedure: as §1, §2

[1] = tested on: human IGF-1R phosphorylation; test: cell based IGF-1R phosphorylation ELISA
Procedure: Mouse fibroblast cell lines recombinantly expressing human IGF-1R or human IR-A are maintained in DMEM supplemented with 10% heat inactivated FCS, 1 mM sodium pyrovate, 0.075% sodium bicarbonate, MEM NEAA, and 0.3 μg/ml puromycin at 37° C. and 5% CO2 in a humidified incubator. Cells are detached with trypsin/EDTA, resuspended in growth medium and diluted to 100,000 cells/mL. 100 μL (10,000 cells) are seeded in wells of a sterile 96-well plate and incubated overnight in a humidified incubator at 37° C. and 5% CO2. The cells are then starved with 100 μL/well assay medium (DMEM supplemented with 0.5% heat inactivated FCS; 1 mM sodium pyrovate, 0.075% sodium bicarbonate, and MEM NEAA) and incubated overnight as before. A range of test antibody concentrations prepared in assay medium is added to the cells, all samples are prepared in triplicate to determine the standard deviation for each assay condition. An IGF-1R antibody, αIR-3 (Calbiochem, No. GR11L) is also tested in these experiments. IGF-1 (20 ng/mL final concentration), IGF-2 (100 ng/mL final concentration), or human serum (20% final concentration) is then added and the plates incubated for 30 min in the humidified incubator. Cells are fixed by replacing the growth medium with 4% formaldehyde in PBS for 20 min at RT. After two wash cycles with 300 μL/well wash buffer (PBS with 0.1% Triton X-100) for 5 min (with agitation) the cells are quenched with 100 μL/well 1.2 wt % hydrogen peroxide in wash buffer for 30 minutes at RT. Cells are washed again with 300 μL/well washing buffer and blocked with 100 μL/well blocking buffer (5% BSA in wash buffer) for 60 min at RT with agitation. Blocking buffer is removed and 50 μl/well primary phopho-IGF-I receptor β (tyr1135/1136)/insulin receptor β (tyr1150/1151) antibody (Cell Signaling, No. 3024) diluted 1:1000 in blocking buffer is added. Plates are incubated overnight at 4° C. with agitation then washed three times as above and 50 μL/well anti-rabbit IgG goat immunoglobulins conjugated with horseradish peroxidase (Dako, No. P0448) diluted 1:500 in blocking buffer is added. After a 60 min incubation at RT with agitation the wells are washed twice with washing buffer as above and once with 300 μL PBS. 100 μL/well TMB substrate solution (Bender MedSystems, No. BMS406.1000) is added to the wells and incubated for 10 min with agitation, following this the reaction is stopped by adding 100 μL/well 1 M phosphoric acid and the absorbance read using a photometer (OD 450 nm, OD 650 nm as reference). Inhibition of IGF-1R or IR-A phosphorylation IC50 values are determined by graphical analysis. […]
The level of IGF bioactivity in human serum or plasma samples can also be measured using the IGF-1R phosphorylation cell based ELISA.

[2] = tested on: human IR-A phosphorylation; test: cell based IR-A phosphorylation ELISA; conditions: stimulus IGF-2 (100 ng/mL)
[3] = stimulus Human Serum Pooled from Healthy Donors (20%)

T1 sequence (P09535 25-91 limits assumed): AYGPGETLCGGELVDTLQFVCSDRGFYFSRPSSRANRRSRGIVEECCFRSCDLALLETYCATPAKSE

B1: 60833: fully human IgG1/Igλ anti-IGF antibody; heavy chain SEQ ID NO:39, light chain SEQ ID NO:40 (antibody, listed as Homo sapiens)
heavy: QVELVESGGGLVQPGGSLRLSCAASGFTFTSYWMSWVRQAPGKGLELVSSITSYGSFTYYADSVKGRFTISRDNSKNTLYLQMNSLRAEDTAVYYCARNMYTHFDSWGQGTLVTVSS[human IgG1 constant region left out here]
light: DIVLTQPPSVSGAPGQRVTISCSGSSSNIGSNSVSWYQQLPGTAPKLLIYDNSKRPSGVPDRFSGSKSGTSASLAITGLQSEDEADYYCQSRDTYGYYWVFGGGTKLTVLGQPKAAPSVTLFPPSSEELQANKATLVCLISDFYPGAVTVAWKGDSSPVKAGVETTTPSKQSNNKYAASSYLSLTPEQWKSHRSYSCQVTHEGSTVEKTVAPTECS
B1 was tested, and the ELISA binding (Mouse IGF-2) was “comparable cross-reactive binding”, the ELISA binding (Rat IGF-1) was “comparable cross-reactive binding” and the “ELISA reactivity to human insulin” value (human insulin) was “no reactivity”. The “% Remaining Phosphorylation at 15 μg/mL (100 nM) Inhibitor” value [1, 3] was 5%, the IC50 [1, 3] was 0.25 µg/mL and the “% Remaining Phosphorylation at 15 μg/mL (100 nM) Inhibitor” value ([1]; stimulus IGF-1 (20 ng/mL)) was 0%. The “% Remaining Phosphorylation at 15 μg/mL (100 nM) Inhibitor” value ([1]; stimulus IGF-2 (100 ng/mL)) was 7% and the “% Remaining Phosphorylation at 15 μg/mL (100 nM) Inhibitor” value [2] was 6%.
